Experimental data from the RNAGym collection of RNA variant scans (doi:10.1073/pnas.2313332121).
Variants at the floor of the assay are shown more often than the library holds them.

B1: TPR 5TU (parent)
chain: GGAUCUUCUCGAUCUAACAAAAAAGACAAAUCUGCCACAAAGCUUGAGAGCAUCUUCGGAUGCAGAGGCGGCAGCCUUCGGUGGCGCGAUAGCGCCAACGUUCUCAACUAUGACACGCAAAACGCGUGCUCCGUUGAAUGGAGUUUAUCAUG

Variants of: B1
Experiment: polymerase ribozyme fitness, log enrichment relative to wild type (log ratio); higher = more active; in vitro selection for triplet polymerase activity
Method in brief: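 Fitness measures genotype enrichment against wild-type enrichment on a logarithmic scale, with inverse-variance-weighted averaging of replicates. The logarithm is base 2, and genotypes were kept only with ≥10 input reads and ≥1 read per output in Illumina sequencing. The sequenced libraries came from one triplicate in vitro selection round, including frozen incubation at −7 °C, of PCR-built, transcribed mutant libraries of each subunit of a heterodimeric triplet polymerase ribozyme.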
For GGAUCUUCUCGAUCUAACAAAAAAGACAAAUCUGCCACAAAGCUUGAGAGCAUCUUCGGAUGCAGAGGCGGCAGCCUUCGGUUGCGCGAUAGCGCCAACGUUCUCAACUAUGACACGCAAAACGCGUGCUCCGUUGAAUGGAGUUUAUCAAG [G83U U151A], the “polymerase ribozyme fitness (log ratio)” value was at most -4.2. In the case of GGAUCUUCUCGAUCUAACAAAAAAGACAAAUCUGCCACAAAGCUUGAGAGCAUCUUCGGAUGCAGAGGCGGCAGCCUUCGGUUGCGCGAUAGCGCCAACGUUCUCAACUGUGACACUCAAAACGCGUGCUCCGUUGAAUGGAGUUUAUCAUU [G83U A110G G117U G152U], the “polymerase ribozyme fitness (log ratio)” value is reported as at most -4.2. For GGAUCUUCUCGAUCUAACAAAAAAGACAAAUCUGCCACAAAGCUUGAGAGCAUCUUCGGAUGCAGAGGCGGCAGCCUUCGGUGAGGCGAUAGCGCCAACGUUCUCAGCUAUGACACGCAAAACGCGUGCUCCGUUGAAUGGAAUUUAUCAUG [G84A C85G A107G G143A], the “polymerase ribozyme fitness (log ratio)” value was at most -4.2. For GGAUCUUCUCGAUCUAACAAAAAAGACAAAUCUGCCACAAAGCUUGAGAGCAUCUUCGGAUGCAGAGGCGGCAGCCUUCGGUGACGCGAUAGCGCCACCGUUCUGAACUAUGACACGCAAAACGCGUGCUCCGUUGAAUGGAGUUUACCAUG [G84A A98C C105G U148C], the “polymerase ribozyme fitness (log ratio)” value was -3.35. With GGAUCUUCUCGAUCUAACAAAAAAGACAAAUCUGCCACAAAGCUUGAGAGCAUCUUCGGAUGCAGAGGCGGCAGCCUUCGGUUGCGCGCGAGCGCCAACGUUCUUAACUAUGACACGCAAAACGCGUGCUCCGUUGAAUGGAGUUUAUCAUG [G83U A89C U90G C105U] the “polymerase ribozyme fitness (log ratio)” value was at most -4.2. In the case of GGAUCUUCUCGAUCUAACAAAAAAGACAAAUCUGCCACAAAGCUUGAGAGCAUCUUCGGAUGCAGAGGCGGCAGCCUUCGGUGAUGCGAUAGCGCCAACGUUCUCAACUAUGACACGCAAAACGCGUGCUCCGUUGAAUGGAAUUUAUCAUG [G84A C85U G143A], the “polymerase ribozyme fitness (log ratio)” value is reported as -1.63. With GGAUCUUCUCGAUCUAACAAAAAAGACAAAUCUGCCACAAAGCUUGAGAGCAUCUUCGGAUGCAGAGGCGGCAGCCUUCGGUGACGCGAUAGCGCCAACGUUCUCAACUAUGACACGCAAAACGCGUGCUCCGUUGCAUGGAGCUUAUCAUG [G84A A137C U144C] the “polymerase ribozyme fitness (log ratio)” value was at most -4.2. In the case of GGAUCUUCUCGAUCUAACAAAAAAGACAAAUCUGCCACAAAGCUUGAGAGCAUCUUCGGAUGCAGAGGCGGCAGCCUUCGGUUGCGCGAUGGCGCCAACGUUCUCAACUAUGACACGCAAGACCCGUGCUCCGUUGAAUGGAGUUUAUCAUG [G83U A91G A121G G124C], the “polymerase ribozyme fitness (log ratio)” value is reported as at most -4.2. For GGAUCUUCUCGAUCUAACAAAAAAGACAAAUCUGCCACAAAGCUUGAGAGCAUCUUCGGAUGCAGAGGCGGCAGCCUUCGGUUGCGCGAUAGCGCCAACGUUCUCAACUAUGAAACGCAAAACGCGGGCUCCGUUGAAUGUAGUUUAUCAUU [G83U C114A U127G G141U G152U], the “polymerase ribozyme fitness (log ratio)” value was at most -4.2. In the case of GGAUCUUCUCGAUCUAACAAAAAAGACAAAUCUGCCACAAAGCUUGAGAGCAUCUUCGGAUGCAGAGGCGGCAGCCUUCGGUUGCGCUAUAGCGCCAACGUUCUCAACUAUGACACGCAAAACGCGUGCUCCGUUGAAUGGAGUUUAUCUUG [G83U G88U A150U], the “polymerase ribozyme fitness (log ratio)” value is reported as -3.49. With GGAUCUUCUCGAUCUAACAAAAAAGACAAAUCUGCCACAAAGCUUGAGAGCAUCUUCGGAUGCAGAGGCGGCAGCCUUCGGUUGCGUGAUAGCGCCAACGUUCUCAACUAUGACACGCAAAACGCGUGCUCCGUUGAAUGGAGUUUAUCCUG [G83U C87U A150C] the “polymerase ribozyme fitness (log ratio)” value was at most -4.2. For GGAUCUUCUCGAUCUAACAAAAAAGACAAAUCUGCCACAAAGCUUGAGAGCAUCUUCGGAUGCAGAGGCGGCAGCCUUCGGUUGCGCGCUAGCCCCAACGUUCUCAACUAUGACACGCUAAACGCGUGCUCCGUUGAAUGGAGGUUAUUAUA [G83U A89C G94C A119U U144G C149U G152A], the “polymerase ribozyme fitness (log ratio)” value was at most -4.2. In the case of GGAUCUUCUCGAUCUAACAAAAAAGACAAAUCUGCCACAAAGCUUGAGAGCAUCUUCGGAUGCAGAGGCGGCAGCCUUCGGUGACGCGAUAGCGCCAACGUUCUCACCUAUGACACGCAAAACGCGUGCUCCGCUGAAUGGAGUUUAUCAUG [G84A A107C U134C], the “polymerase ribozyme fitness (log ratio)” value is reported as at most -4.2. For GGAUCUUCUCGAUCUAACAAAAAAGACAAAUCUGCCACAAAGCUUGAGAGCAUCUUCGGAUGCAGAGGCGGCAGCCUUCGGUUGCGCGACAGCGCCAACGUUCUCAACUAUGUCACGCAAAACGCGUGCUCCGUUGAAUGGAGUUUACCAUG [G83U U90C A113U U148C], the “polymerase ribozyme fitness (log ratio)” value was at most -4.2. In the case of GGAUCUUCUCGAUCUAACAAAAAAGACAAAUCUGCCACAAAGCUUGAGAGCAUCUUCGGAUGCAGAGGCGGCAGCCUUCGGUGACGCGAUAGCGCCAACGUUCUCAACUAUGACACGCACAACGUGUGCUCCGUUAAAUGGAGUUUAUCAUG [G84A A120C C125U G136A], the “polymerase ribozyme fitness (log ratio)” value is reported as 0.204. In the case of GGAUCUUCUCGAUCUAACAAAAAAGACAAAUCUGCCACAAAGCUUGAGAGCAUCUUCGGAUGCAGAGGCGGCAGCCUUCGGUUGCGCGAUAGCCCCAACGUUCUCAACUAUGACAUGCAAAACGCGUGCUCCGUUGAAUGGAGUUUAUCAUG [G83U G94C C116U], the “polymerase ribozyme fitness (log ratio)” value is reported as -2.08. In the case of GGAUCUUCUCGAUCUAACAAAAAAGACAAAUCUGCCACAAAGCUUGAGAGCAUCUUCGGAUGCAGAGGCGGCAGCCUUCGGUCGCGCGAUAGCGCCAACGUUCUCAACUAUGACACGCAAAACGCGUGCUCCGUUGAAUGGAGCUUAUCAUG [G83C U144C], the “polymerase ribozyme fitness (log ratio)” value is reported as -1.58. For GGAUCUUCUCGAUCUAACAAAAAAGACAAAUCUGCCACAAAGCUUGAGAGCAUCUUCGGAUGCAGAGGCGGCAGCCUUCGGUGAUGCGAUAGCGCCAAUGUACUCAACUAUGAGACGCAAAACGCGUGCUCCGUUGAAUGGAGUUUAUCAUG [G84A C85U C99U U102A C114G], the “polymerase ribozyme fitness (log ratio)” value was at most -4.2. With GGAUCUUCUCGAUCUAACAAAAAAGACAAAUCUGCCACAAAGCUUGAGAGCAUCUUCGGAUGCAGAGGCGGCAGCCUUCGGUUGCGCGAUAACGCCAACGUUCUCAACUAUGACACGCAAAACGGGUGCUCCGUUGAGUGGAGUUUAUCAAG [G83U G92A C125G A138G U151A] the “polymerase ribozyme fitness (log ratio)” value was at most -4.2.
